# Laboratory results from PubChem BioAssay (NCATS).
# Inconclusive means that the source gave no clear call. Such entries were picked first, then a sample of the others. Potencies of inconclusive entries are doubtful fits and often do not repeat. Activity calls are given as the source filed them. The call rests on the fitted dose curve; in most records, active means well fitted curve in the direction sought with a large enough effect; inconclusive means small, poorly fitted or top-dose-only effect, or another doubt; inactive means no such curve, though single readings can be large; an effect the other way counts as inactive or inconclusive.
# Tests used:
# [1] = qHTS to identify inhibitors of the type 1 interferon - major histocompatibility complex class I in skeletal muscle: primary screen against the NCATS Pharmaceutical Collection (AID 1347407); settings: human skeletal muscle cells, IFN-b-induced MHC-I HiBiT luminescence, 24 h; activity change, negative = inhibition: at 45.9 µM (top of the series);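 further: luminescence of HiBiT knocked into endogenous HLA-B as interferon-induced MHC class I level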; on activity change, negative = inhibition: on the % scale 0 is the no-effect control and ±100 the full control effect
# Outline: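 Immortalized human myoblasts (C25cl48) with HiBiT knocked into endogenous HLA-B*08:01 were stimulated with 4.0 ng/ml IFN-beta and treated with compounds ([…] top 46 uM) for 24 hrs at 37 C. HiBiT lytic luminescence read.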
# [2] = target: Protein phosphatase 1D (Homo sapiens) (UniProt O15297); experiment: Rhodamine-PBP qHTS Assay for Modulators of WT P53-Induced Phosphatase 1 (WIP1) (AID 1347425); settings: recombinant WIP1, Rhodamine-PBP phosphate fluorescence, real-time; series mostly up to 57.5 µM
# Outline: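 The read-out is the change in Rhodamine-PBP fluorescence (f1 - f0, ex 525/em 598 nm) as Pi is released, read each minute for 11 min. Final reaction: 5 nM WIP1, 10 uM phosphopeptide VEPPL-pS-QETFS, 10 uM Rh-PBP, 50 mM Tris-HCl pH 7.5, 30 mM MgCl2. Compound was preincubated with enzyme for 1 hour at room temperature.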
# [3] = qHTS to identify inhibitors of the type 1 interferon - major histocompatibility complex class I in skeletal muscle: primary screen against the NCATS Mechanism Interrogation Plate v5.0 (MIPE) Libary (AID 1347411); settings: iHSKM cells + IFN-b, HiBiT-tagged MHC-I luminescence, 24 h; activity change, negative = inhibition: at 45.8 µM (top of the series); further: nearly all actives have a fitted effect of over 65% in size;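 on activity change, negative = inhibition: plate controls were vehicle for no effect and reference inhibitor for full effect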
# Outline: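 Luminescence from CRISPR HiBit-tagged endogenous HLA-B in human myoblasts reported MHC class I level after 24 h of IFN-beta (4 ng/ml) plus compound. Compounds ran as 11-point 1:3 series, top 46 uM final.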
# [4] = target: Protein phosphatase 1D (Homo sapiens) (UniProt O15297); experiment: RapidFire Mass Spectrometry qHTS Assay for Modulators of WT P53-Induced Phosphatase 1 (WIP1) (AID 1347424); settings: WIP1 dephosphorylation of phosphopeptide, RapidFire MS; series mostly up to 63 µM;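 further: amount of dephosphorylated VEPPL-S-QETFS peptide product formed by WIP1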
# Outline: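 Mass-spectrometric measurement of dephosphorylated peptide after a 5 min room-temperature reaction of 10 nM WIP1 with 2 uM phosphopeptide, following 1 h compound preincubation in 30 mM MgCl2 buffer.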
# [5] = Primary qHTS for inhibitors of La Crosse Virus (LACV) - induced cell death in SH-SY5Y cells (AID 1508616); settings: SH-SY5Y LACV cytopathicity rescue, ATP luminescence, 6 d; series mostly up to 4.29 µM;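 on activity change: top concentration of the series differs between compounds; 0% = infected DMSO wells and 100% = uninfected DMSO wells; higher means more rescue of cells from virus-induced death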
# Outline: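 Rescue of virus-induced death was read as ATPLite luminescence after 6 days at 37C, scaled between DMSO wells with LACV and without virus. Cells were SH-SY5Y, 6000/well, infected at 0.01 MOI after compound addition.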
# [6] = qHTS for inhibitors of adenylyl cyclases using a fission yeast platform: a pilot screen against the NCATS LOPAC library (AID 1347410); settings: S. pombe CHP2027, fbp1-GFP fluorescence, 18 h; yeast expressing mammalian AC9 and human GNAS
# Outline: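 S. pombe CHP2027 (AC9-GNAS-PDE4D2) carrying PKA-repressed fbp1-GFP, incubated 18 h at 30C in EMM with LOPAC compounds at up to 57 uM. GFP gain-of-signal read by laser scanning cytometry; DMSO negative control.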
# Potency means the concentration at half of the fitted maximal effect; tags describe the fitted curve by direction and shape.
# Sequence of UniProt O15297 (O15297 whole entry, looked up): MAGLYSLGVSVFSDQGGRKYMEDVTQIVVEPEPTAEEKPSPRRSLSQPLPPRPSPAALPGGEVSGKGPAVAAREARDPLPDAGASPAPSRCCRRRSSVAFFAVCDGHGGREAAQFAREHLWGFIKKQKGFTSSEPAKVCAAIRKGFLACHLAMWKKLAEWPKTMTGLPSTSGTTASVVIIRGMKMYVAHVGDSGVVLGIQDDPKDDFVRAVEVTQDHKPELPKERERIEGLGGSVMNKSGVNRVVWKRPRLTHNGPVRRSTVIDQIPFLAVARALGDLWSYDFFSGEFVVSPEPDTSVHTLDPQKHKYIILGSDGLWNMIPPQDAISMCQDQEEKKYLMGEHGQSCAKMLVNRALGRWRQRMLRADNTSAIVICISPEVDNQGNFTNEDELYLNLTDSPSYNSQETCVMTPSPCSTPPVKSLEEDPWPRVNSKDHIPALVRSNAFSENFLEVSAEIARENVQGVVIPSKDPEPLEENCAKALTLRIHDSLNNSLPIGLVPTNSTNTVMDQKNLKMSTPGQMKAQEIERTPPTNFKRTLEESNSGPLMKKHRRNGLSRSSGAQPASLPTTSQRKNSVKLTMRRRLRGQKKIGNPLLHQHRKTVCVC
compound,measurement,setting,value
O=C(NOCC1CC1)c1ccc(F)c(F)c1Nc1ccc(I)cc1Cl,Potency,[1],"inconclusive: 14.9 µM [inhibitor, partial curve, poor fit]"
same,Potency,[2],"inconclusive: 10 µM [inhibitor, partial curve, poor fit]"
Nc1nccc(Oc2ccc(NC(=O)c3c[nH]cc(-c4ccc(F)cc4)c3=O)cc2F)c1Cl,Potency,[3],"inconclusive: 13.1 µM [inhibitor, partial curve, poor fit]"
COc1ccc(Cl)cc1C(=O)NCCc1ccc(S(=O)(=O)NC(=O)NC2CCCCC2)cc1,Potency,[1],inactive
same,Potency,[4],"inconclusive: 39.8 µM [inhibitor, partial curve, poor fit]"
same,Potency,[2],"inconclusive: 22.4 µM [inhibitor, partial curve, poor fit]"
NC(=O)c1ccc(-c2nc(-c3ccc4c(c3)OCCO4)c(-c3ccccn3)[nH]2)cc1,Potency,[3],inactive
CCCSc1ccc2nc(NC(=O)OC)[nH]c2c1,Potency,[1],"inconclusive: 7.45 µM [inhibitor, full curve, poor fit]"
same,Potency,[5],"inconclusive: 0.708 µM [inhibitor, full curve, poor fit]"
CCCNC(C)C(=O)Nc1ccccc1C (configuration not stated),Potency,[1],inactive
CCC(C(=O)O)c1ccc(N2Cc3ccccc3C2=O)cc1 (configuration not stated),Potency,[1],"inconclusive: 37.4 µM [inhibitor, single point]"
same,Potency,[5],inactive
CCOCCOC(=O)/C=C/c1ccc(OC)cc1,Potency,[1],inactive
same,Potency,[5],"inconclusive: 3.16 µM [inhibitor, single point]"
NCCO,Potency,[1],inactive
NC(=O)c1cccc2[nH]c(-c3ccc([C@H]4CCCN4)cc3F)nc12,Potency,[3],"inconclusive: 13.1 µM [inhibitor, partial curve]"
COC(=O)Nc1nc2ccc(Sc3ccccc3)cc2[nH]1,Potency,[1],"inconclusive: 1.67 µM [inhibitor, full curve, poor fit]"
same,Potency,[3],"inconclusive: 1.17 µM [inhibitor, full curve, poor fit]"
same,Potency,[4],"inconclusive: 31.6 µM [inhibitor, partial curve]"
same,Potency,[5],active: 0.199 µM
CNC1CCCN(c2c(F)cc3c(=O)c(C(=O)O)cn(C4CC4)c3c2OC)C1 (configuration not stated),Potency,[3],inactive
[O-][n+]1ccccc1SSc1cccc[n+]1[O-],Potency,[1],"inconclusive: 1.63 µM [inhibitor, full curve, poor fit]"
same,Potency,[5],"inconclusive: 0.355 µM [inhibitor, partial curve, poor fit]"
CC(=O)OCC(=O)[C@@]1(O)CC[C@H]2[C@@H]3CCC4=CC(=O)C=C[C@]4(C)[C@H]3[C@@H](O)C[C@@]21C,Potency,[3],"inconclusive: 0.104 µM [inhibitor, full curve, poor fit]"
CCCCC(CC)CN1CN(CC(CC)CCCC)CC(C)(N)C1 (configuration not stated),Potency,[1],inactive
CS(=O)(=O)CCNCc1ccc(-c2ccc3ncnc(Nc4ccc(OCc5cccc(F)c5)c(Cl)c4)c3c2)o1,Potency,[1],"inconclusive: 14.9 µM [inhibitor, partial curve, poor fit]"
same,Potency,[3],active: 33 µM
CCCCC1C(=O)N(c2ccccc2)N(c2ccc(O)cc2)C1=O (configuration not stated),"activity change, negative = inhibition",[1],inconclusive: -47.7% [inhibitor]
same,Potency,[2],"inconclusive: 20 µM [inhibitor, partial curve, poor fit]"
O=C(O)Cc1cccc(-c2cc(CCCCCCc3ccc(O[C@H]4O[C@H](CO)[C@@H](O)[C@H](O)[C@@H]4O)c(-c4cccc(CC(=O)O)c4)c3)ccc2O[C@H]2O[C@H](CO)[C@@H](O)[C@H](O)[C@@H]2O)c1,"activity change, negative = inhibition",[1],inactive: -3.38% [at 0.727 µM]
Cn1cc(C2=C(c3ccc(Cl)cc3Cl)C(=O)NC2=O)c2ccccc21,Potency,[6],"inconclusive: 25.1 µM [activator, single point]"
CN(C)c1ccc2cc(C(=O)N[C@@H](CCCN=C(N)CCl)C(=O)NCc3ccccc3)ccc2c1,Potency,[3],active: 20.8 µM
CCN(CC)CCOc1ccc(/C(=C(\Cl)c2ccccc2)c2ccccc2)cc1,Potency,[1],"inconclusive: 23.6 µM [inhibitor, partial curve]"
same,Potency,[3],"inconclusive: 13.1 µM [inhibitor, partial curve, poor fit]"
CCc1ccc(OCc2ccccc2C(=O)Nc2ccc3nc(C)cc(N)c3c2)cc1,Potency,[3],"inconclusive: 10.4 µM [inhibitor, full curve, poor fit]"
NC(CO)C(=O)NNCc1ccc(O)c(O)c1O (configuration not stated),Potency,[1],inactive
same,Potency,[3],inactive
C[C@H]1C[C@H]2[C@@H]3CCC4=CC(=O)C=C[C@]4(C)[C@@]3(Cl)[C@@H](O)C[C@]2(C)[C@@]1(O)C(=O)CO,Potency,[1],"inconclusive: 0.0333 µM [inhibitor, full curve]"
C[C@H](NC(=O)[C@@H](O)c1cc(F)cc(F)c1)C(=O)N[C@@H]1C(=O)N(C)c2ccccc2-c2ccccc21,Potency,[3],inactive
Cc1ccc(C(=O)Nc2cccc(C(F)(F)F)c2)cc1Nc1nc(-c2cccnc2)nc2c1cnn2C,Potency,[3],active: 33 µM
COC(=O)C1=C(C)NC(C)=C(C(=O)OCCN2CCN(C(c3ccccc3)c3ccccc3)CC2)C1c1cccc([N+](=O)[O-])c1 (configuration not stated),Potency,[1],"inconclusive: 13.3 µM [inhibitor, partial curve, poor fit]"
same,Potency,[3],inactive
